Source: the RNAGym collection of RNA variant scans (doi:10.1093/nar/gkz1192)
The source gives no read counts; variants with many changes may rest on few reads.

B1: CPEB3 Ribozyme (parent)
chain: UAACAGGGGGCCACAGCAGAAGCGUUCACGUCGCAGCCCCUGUCAGAUUCUGGUGAAUCUGCGAAUUCUGCUGUAUAUCUC

Variants of: B1
Experiment: self-cleavage, relative activity (ratio to wild type); higher = more cleavage; in vitro, sequencing
Method in brief: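 For each CPEB3 ribozyme variant, relative activity is its cleaved/total read fraction divided by the unmutated ribozyme's. Barcoded error-prone PCR libraries were transcribed by T7 RNA polymerase (5 hours, 37°C) and held in DNase I for 15 min before an EDTA stop, with cleavage occurring throughout. Template-switching reverse transcription and Illumina sequencing were used to read the RNAs. A 5-read minimum applied, and results are the mean of three batches.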

Variant	self-cleavage
C37A U43C U78C	0.17
G36C A75U U80G	0.07
C37U U43A U74C	1.07
C39A A45G A64U	0.19
C39U A56G U66C C71G	0.08
C40A U49C U76A	0.08
C40U U67A U69G U80A	0.08
C38U A57G A77U	0.47
C40U U54C A56G A64U U74G U80C	0.13
C39A U41C A47G U49C U60C	0.13
C40U A45G G53A	0.41
C39U U67C A75U U76G	0.26
C40U A57G A64G U67C	0.05
C40A U48A G63U U72A	0.12
C40U A45U A57U U78A	0.05
C40U U43C A57G U80A	0.17
C38A C40A U69G	0.16
C39A U58C G61A	0.11
C39U A45U U49A	0.36
C40U A47G U49C U67C	0.05
C39U A75G U80C	0.48
C37U U48C U51C U66C	0.08
C40U A47G U54C A64G	0.16
C38A U51C U60C A64G	0.12

Variant	self-cleavage
G36C C37U U49C U60C U80C	0.22
U41A A45G A65G	0.4
C38U U67A U76A	0.55
G36C U51C A65G U78C	0.19
C40U U58C U66A	0.14
C39U A45G C59G	0.11
C39A U43C U60A	0.16
C39U G53A U80C	0.84
C37U A45G U60C U67A	0.21
C39A A45G U72A	0.08
C39A U41C U49C U67G	0.14
C39A G63A U78C U80C	0.21
C40U A47G A75G U78C	0.35
C38U A45C A47U U78C	0.06
C37A A57G U58C	0.11
C40U U60A C68U	0.51
C39A G46U U51C	0.09
G36C C39A A57U	0.15
C40A U54C A56C	0.12
C39G A57G A65G U67C U78C U80C	0.06
C40A U41A U48C	0.08
C37U A45C G70C A77G U80C	0.09
C39G U60G A64U	0.09
C38A G42A U78G	0.18

Variant	self-cleavage
C39U A56G U78C	0.51
C39U U41C C71G U78C	0.27
C39A U41C U49C	0.15
C40G A45C C62G	0.15
C39U C62U U80C	0.57
C39U U72C U76A	1.07
C38A U41C U72C	0.65
G36C U49A U54C A56G	0.05
C40G U43C U49A U66C	0.12
C39U U41C U49A U58C C71G A75U	0.14
C40U U48C C62U	0.05
C39G A64G U69A	0.23
C38U A45U U49C U72C	0.08
G36U U41A A45U A56C U76A	0.07
C39U G55A U67A	0.18
C38U U60C U69A U78C	0.21
C40A U41C A45C G61C	0.07
U41A A45G A57G A65G	0.18
C38A G42U U54C C62A U78C	0.13
G36C U49C U51C A65U	0.1
C38U U41C U51A	0.88
C39U U54C U72C U76C	0.8
C40U A77G U78C	0.29
C39U A57G U72C	0.22

Variant	self-cleavage
C40U U41A U54C	0.46
C39A U49C G53C U74A U78C	0.07
C39A A57G A64G U80C	0.1
C40A A45U U72A	0.33
G36U U48C G55A U78C	0.1
G36C A45G U58C A77U	0.03
U41A A45C U51A U76A	0.16
C38A U69A U80A	0.13
C39U U41C G55A A64G G70U U72A	0.13
C38U A45G U74C	0.93
C40A U41C U60C U80C	0.15
C38A A56G U58C	0.24
C37U C62U C71A	0.14
C37U U41C A47G	0.84
C38U U43A A57G U72A	0.23
C40U U54A U58C	0.29
C38G A65G U72C U78C U80A	0.05
C40U U41A G61A	0.54
C37G U48C U54C	0.23
C40A A47G U66C	0.34
U41A A45G U48C A65G U66C U72C	0.21
C39A A45U A57G U74C	0.1
C40A A45G A65G	0.12
G36U U43C U67A	0.18

Variant	self-cleavage
C37U U60C U80A	0.13
C39A G42A U54C A56G	0.07
C40U U76A A77G	0.79
C37A A65G U74A	0.36
G36U C40U U54C U69A	0.11
C37A C39A A56G G61A U69C	0.08
G36U C44G U60C G61A U72C	0.16
C38U A45G A56G	0.24
C37G U41A U54C	0.3
C37G C38G A45U A65G C71G A75C	0.03
G36U U43C A64U	0.19
C40A A45C U48C	0.17
C40U U43G U54G	0.15
G36C U48C U51C	0.08
C38A A45G A77C	0.08
C38U U54C A56G U80A	0.17
C38A U43G U69C	0.16
C40G U60A U66C U74C	0.11
C39U U41C U51G	0.92
C40A U48A U54G U80C	0.22
C39A C62U U66C	0.12
C38U G46A G63U A77G	0.1
C37A U54C U80A	0.22
C38A U43C G46A A47U	0.13

Variant	self-cleavage
C38U A56G U72A	0.24
C37A U49C U78C	0.21
C40U A45C U60C U69C U74A A75G	0.07
C38A U41G A47G U51C U80C	0.08
C40G U43C U67C U80C	0.18
C40U A45G G46C A64U U72C	0.12
U41A A45C A56U	0.19
C39A A56G A75G	0.13
C37U U67C U78C	0.1
C39A U54A U80C	0.13
C40U A57G U72C	0.67
C38G A47G U74C A75U	0.11
C39U U41C C71G	0.15
C40U C50A A64G A65G	0.12
C38A G63A A64C	0.14
G36U A56U A57G A75G	0.15
C39U U49C G55U	0.16
G36U A45G U48C	0.17
C40U G52A A65G U80C	0.12
C38G G42A U69C	0.07
C40A A45U C62U	0.13
C38A U60C U78A	0.4
C39U U41A U43C	0.44
C37U A64G U78C	0.52

Variant	self-cleavage
C39A U69A U72C	0.19
C37U A57G A64U	0.16
C37U G42C U51A U66C C79A	0.12
C40A U51C G61A U72C	0.25
C37U U51A U72C	0.76
C40A U43A A57G A64U	0.14
C38U U41G U72C U80A	0.11
C38U U54C U67C U78C	0.08
C39A A45G A75G U80G	0.07
U41A A45G A47G U67C	0.11
C39U U43A G55A	0.93
C39A U43C U60A U80A	0.19
C39U U48C A77U	0.27
C40A A45G U67C	0.07
C40U U41C U49A U67C	0.31
C40U U49A U76C	0.39
C40U A56U U78C	0.3
C37U U41A G73U	0.07
C37A U60A U72C	0.08
C37A A64U U80A	0.1
C37U U43C A47U A56G U78C	0.1
C38U U74G U80C	0.77
C40U A57G U69A U72C	0.11
